# Measurements from the supplement of paper PMC12217912.
# This is one part of the list. The full chains were built here from the parent and the listed change. Values near 0.05 are background.
# B1: TEV protease; numbered along this chain (parent)
# chain: MGESLFKGPRDYNPISSSICHLTNESDGHTTSLYGIGFGPFIITNKHLFRRNNGTLVVQSLHGVFKVKDTTTLQQHLVDGRDMIIIRMPKDFPPFPQKLKFREPQREERICLVTTNFQTKSMSSMVSDTSCTFPSGDGIFWKHWIQTKDGQCGSPLVSTRDGFIVGIHSASNFTNTNNYFTSVPKNFMELLTNQEAQQWVSGWRLNADSVLWGGHKVFMVKPEEPFQPVKEATQL
# Variants of: B1
# Test: raw area under fraction-flipped curve 0-4 h after induction (AUC4h, not background-subtracted), DNA-recorder readout of cleavage of the substrate (dimensionless); higher = more cleavage of the substrate by the protease variant
# Conditions: temperature: 34 °C; time window: 0-4 h after rhamnose induction
# Protocol: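 In vivo DNA recorder in E. coli TOP10(DE3) ΔrhaA at 34 °C. Each TEVp single-site mutant (parent TEVp 0) is paired with a single-site variant of the 7-mer TEVs (canonical ENLYFQ|S). The substrate sits between flexible linkers in a Bxb1-sfGFP-TEVs-SsrA fusion, so cleavage stabilises Bxb1 and speeds flipping of a recombination array, read by NGS. The value is the raw area under the fraction-flipped curve over 0-4 h after rhamnose induction (AUC4h), with ≥20 reads per time point. It is not background-subtracted; inactive controls average about 0.047.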
# 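Note: Bxb1 expression induced with 0.2% (w/v) L-rhamnose at OD600 near 0.5, cultures sampled hourly, flipped fraction per protease–substrate barcode pair counted by paired-end Illumina sequencing.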
Variant,area with substrate ENAYFQS,area with substrate ENCYFQS,area with substrate ENDYFQS,area with substrate ENEYFQS,area with substrate ENFYFQS,area with substrate ENGYFQS,area with substrate ENHYFQS,area with substrate ENPYFQS,area with substrate ENQYFQS,area with substrate ENRYFQS,area with substrate ENSYFQS,area with substrate ENIYFQS,area with substrate ENTYFQS,area with substrate ENVYFQS,area with substrate ENNYFQS,area with substrate ENWYFQS,area with substrate ENKYFQS,area with substrate ENMYFQS,area with substrate ENYYFQS
MGESLFKGPRDYNPISSSICHLTNESDGHTTSLYGIGFGPFIITNKHLFRRNNGTLVVQSLHGVFKVKDTTTLQQHLVDGRDMIIIRMPKDFPPFPQKLSFREPQREERICLVTTNFQTKSMSSMVSDTSCTFPSGDGIFWKHWIQTKDGQCGSPLVSTRDGFIVGIHSASNFTNTNNYFTSVPKNFMELLTNQEAQQWVSGWRLNADSVLWGGHKVFMVKPEEPFQPVKEATQL [K100S],0.0707,0.0713,0.0562,0.0646,0.061,0.0581,0.0612,0.056,0.0588,0.0689,0.0641,–,–,–,–,–,–,–,–
MGESLFKGPRDYNPISSSICHLTNESDGHTTSLYGIGFGPFIITNKHLFRRNNGTLVVQSLHGVFKVKDTTTLQQHLVDGRDMIIIRMPKDFPPFPQKLKFREPQREERICLVTTNFQTKSMSSMVSDTSCTFPSGDGIFWKHWIQTKDGQCGSPDVSTRDGFIVGIHSASNFTNTNNYFTSVPKNFMELLTNQEAQQWVSGWRLNADSVLWGGHKVFMVKPEEPFQPVKEATQL [L156D],0.0581,0.0581,0.047,0.065,0.0518,0.0678,0.0515,–,0.0389,0.0601,0.0467,0.0516,0.0512,0.0531,–,–,–,–,–
MGESLFKGPRDYNPISSSICHLTNESDGHTTSLYGIGFGPFIITNKHLFRRNNGTLVVQSLHGVFKVKDTTTLQQHLVDGRDMIIERMPKDFPPFPQKLKFREPQREERICLVTTNFQTKSMSSMVSDTSCTFPSGDGIFWKHWIQTKDGQCGSPLVSTRDGFIVGIHSASNFTNTNNYFTSVPKNFMELLTNQEAQQWVSGWRLNADSVLWGGHKVFMVKPEEPFQPVKEATQL [I86E],0.0323,0.0347,0.0399,0.0307,0.0369,0.0343,–,0.0264,0.0376,–,0.0275,–,–,0.033,0.0324,0.0299,–,–,–
MGESLFKGPRDYNPISSSICHLTNESDGHTTSLYGIGFGPFIITNKHLFRRNNGTLVVQSLHGVFKVKDTTTLQQHLVDGRDMIIIRMPKDFPPFPQKLKFREPQREERICLVTTNFQTKSMSSMVSDTSCTFPSGDGIFWHHWIQTKDGQCGSPLVSTRDGFIVGIHSASNFTNTNNYFTSVPKNFMELLTNQEAQQWVSGWRLNADSVLWGGHKVFMVKPEEPFQPVKEATQL [K142H],0.0524,0.0772,0.0625,0.0474,–,–,0.0651,–,0.0635,0.0442,0.0658,0.116,0.0633,0.0857,0.0649,0.0581,0.0647,0.0681,–
MGESLFKGPRDYNPISSSICHLTNESDGHTTSLYGIGFGPFIITNKHLFRRNNGTLVVQSLHGVFKVKDTTTLQQHLVDGRDMIIIRMPKDFPPFPQKLKFREPQREERICLVTTNFQTKSMSSMVSDTSCTFPSGDGIFWKHWIQTKDGQCGSPLVSTRDGFIVGIHSASNFTNTNNYFTSVPKNFMELLTNQEAQQWVSGWRLNADSVLWGGHKVLMVKPEEPFQPVKEATQL [F218L],0.0621,0.0465,0.0608,0.0657,–,0.0473,0.0676,–,0.0581,0.0575,0.0625,0.103,0.0501,0.0728,0.0588,0.0642,0.0702,–,0.0952
MGESLFKGPRDYNPISSSICHLTNESDGHTTSLYGIGFGPFIITNKHLFRRNNGTLVVQSLHGVFKVKDTTTLQQHLVDGRDMIIIRMPKDFPPFPQKLKFREPQREERICLVTTNFQTKSMSSMVSDTSTTFPSGDGIFWKHWIQTKDGQCGSPLVSTRDGFIVGIHSASNFTNTNNYFTSVPKNFMELLTNQEAQQWVSGWRLNADSVLWGGHKVFMVKPEEPFQPVKEATQL [C131T],0.0733,–,–,–,0.0633,–,–,0.0557,0.0633,–,0.0629,–,0.0954,0.0964,0.0553,–,–,–,0.0553
MGESLFKGPRDYNPISSSICHLTNESDGHTTSLYGIGFGPFIITNKHLFRRNNGTLVVQSLHGVFKVKDTTTLQQHLVDGRDMIIIRMPKDFPPFPQKLKFREPQREERICLVTTNFQTKSMSSMVSDTSCTFPSGDGIFWKHWIQTKDGQCGSCLVSTRDGFIVGIHSASNFTNTNNYFTSVPKNFMELLTNQEAQQWVSGWRLNADSVLWGGHKVFMVKPEEPFQPVKEATQL [P155C],0.0627,–,0.0628,0.0594,0.0516,0.0557,–,0.0605,–,–,0.0654,0.0664,0.0241,–,–,0.0377,0.0522,0.0824,–
MGESLFKGPRDYNPISSSICHLTNESDGHTTSLIGIGFGPFIITNKHLFRRNNGTLVVQSLHGVFKVKDTTTLQQHLVDGRDMIIIRMPKDFPPFPQKLKFREPQREERICLVTTNFQTKSMSSMVSDTSCTFPSGDGIFWKHWIQTKDGQCGSPLVSTRDGFIVGIHSASNFTNTNNYFTSVPKNFMELLTNQEAQQWVSGWRLNADSVLWGGHKVFMVKPEEPFQPVKEATQL [Y34I],0.0596,–,0.0685,–,–,0.0587,0.0619,0.0469,0.0682,–,–,0.101,–,0.0586,0.0631,–,–,–,0.0453
MGESLFKGPRDYNPISNSICHLTNESDGHTTSLYGIGFGPFIITNKHLFRRNNGTLVVQSLHGVFKVKDTTTLQQHLVDGRDMIIIRMPKDFPPFPQKLKFREPQREERICLVTTNFQTKSMSSMVSDTSCTFPSGDGIFWKHWIQTKDGQCGSPLVSTRDGFIVGIHSASNFTNTNNYFTSVPKNFMELLTNQEAQQWVSGWRLNADSVLWGGHKVFMVKPEEPFQPVKEATQL [S17N],0.0425,0.071,0.0485,0.0625,0.0489,0.0408,0.0563,0.0654,0.0616,0.0456,0.058,–,0.0372,–,0.0593,0.0609,0.0617,–,0.0522
